Literature values as cited in PMC4450067 (PLoS Pathogens, 2015).

Key:
[1] = system: interaction of G3BP with USP10 (NTF2-like domain of G3BP); conditions: cited from earlier work
[2] = system: USP10 DUB activity and p53; conditions: cited from earlier work

## Oc1ccc(/C=C/c2cc(O)cc(O)c2)cc1 [resveratrol]
[1]
  effect on interaction of G3BP with USP10: can inhibit the interaction of G3BP with USP10
[2]
  effect on USP10 DUB activity and p53: stimulating USP10 DUB activity and stabilization of p53
